Data as given in PubChem BioAssay AID1745853 (National Center for Advancing Translational Sciences (NCATS), 2022).
The list shows a part of the results. Further columns of the screen follow, without active or inactive calls.

Columns and labels:
Test in all cases: Primary Screen for Target Class Profiling of Small Molecule Inhibitors of Methyltransferases
[1] = molecular target: Glycine N-methyltransferase (Homo sapiens) (UniProt Q14749); settings: purified enzyme, MTase-Glo SAH luminescence; measured here: GNMT inhibition; at 40 µM; stronger effect = lower value
Summary of the method: (§1)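 Each enzyme was reacted with SAM and its substrate, with compounds tested once at 40 uM; SAH formed was read by MTase-Glo luminescence.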

[2] = molecular target: Guanidinoacetate N-methyltransferase (Homo sapiens) (UniProt Q14353); settings: purified enzyme, MTase-Glo SAH luminescence; measured here: GAMT inhibition; at 40 µM; stronger effect = lower value
Summary of the method: as §1

[3] = molecular target: Histamine N-methyltransferase (Homo sapiens) (UniProt P50135); settings: purified enzyme, MTase-Glo SAH luminescence; measured here: HNMT inhibition; at 40 µM; stronger effect = lower value
Summary of the method: as §1

[4] = molecular target: Nicotinamide N-methyltransferase (Homo sapiens) (UniProt P40261); settings: purified enzyme, MTase-Glo SAH luminescence; measured here: NNMT inhibition; at 40 µM; stronger effect = lower value
Summary of the method: as §1

[5] = molecular target: Phenylethanolamine N-methyltransferase (Homo sapiens) (UniProt P11086); settings: purified enzyme, MTase-Glo SAH luminescence; measured here: PNMT inhibition; at 40 µM; stronger effect = lower value
Summary of the method: as §1
% is set by controls: 0 for no effect and ±100 for the full control effect.

Structure (SMILES)	activity change, negative = inhibition [1] [%]	activity change, negative = inhibition [2] [%]	activity change, negative = inhibition [3] [%]	activity change, negative = inhibition [4] [%]	activity change, negative = inhibition [5] [%]
CC(C)Oc1ccc2c(NC(=O)c3ccc(=O)n(C)n3)nn(CC(F)(F)F)c2c1	-2.08	-6.68	-1.87	-4.64	1.68
O=C(N1CCCCC1)C1(c2ccc(Cl)cc2)CCOCC1	-2.77	-8.55	-0.951	-17.4	-10.2
O=C(Nc1ccc2ncnc(N3CCCC3)c2c1)c1ccc(Cl)s1	-14.2	-8.33	-22.9	-18	-7.64
CN1C(=O)COC[C@@H]1[C@H](O)c1ccc(NC(=O)Nc2ccccc2)cc1	-6.22	-8.82	-2.24	-3.92	-8.52
Cc1ccc(Cn2c(=O)c3ccccc3n3c(CCC(=O)NCCCN4CCN(C)CC4)nnc23)cc1	-6.98	3.04	-35.6	2.96	1.94
Cc1ccc(C)c(CC(=O)NCc2cc3n(n2)CCN(C(=O)N(C)C)C3)c1	-4.39	-2.26	-1.27	-10.1	-4.66
O=C(CCc1nnc2n(Cc3ccc(F)cc3)c(=O)c3ccccc3n12)N1CCN(Cc2ccccc2)CC1	-14.9	-2.83	-8.07	-29.2	-6.69
COc1ccc(CN2C[C@@H](F)[C@@H](OCc3nc4ccncc4[nH]3)C2)cc1	-2.16	0.597	-7.32	-9.44	6.27
CC1CCN(S(=O)(=O)c2ccc3c(ccn3CC(=O)NCc3ccc4c(c3)OCO4)c2)CC1	2.06	0.259	3.94	1.07	1.68
COc1ccc(NC(=O)C2CCCN(c3cnn(Cc4ccccc4)c(=O)c3)C2)cc1OC (stereo not given)	-11.2	-2.4	-2.08	-6.71	-2.3
COc1ccc2[nH]cc(C(=O)Cn3nc4n(Cc5ccccc5)c(=O)c5ccccc5n4c3=O)c2c1	1.02	0.427	6.13	-1.83	0.257
Cc1ccc(-c2cc3n(n2)CCCN(C(=O)c2cc(CN4CCOCC4)on2)C3)o1	-7	-4.99	-0.485	-9.06	-9.62
CS(=O)(=O)NC1CCN(Cc2cc(=O)c3cc(C(N)=O)ccc3[nH]2)CC1	0.034	0.136	0.9	-3.94	-3.1
CCCn1c(=O)c2ccc(C(=O)NCC(C)C)cc2n2c(SCC(=O)Nc3ccc(C)cc3C)nnc12	-0.435	6.77	-1.34	1.94	-2.08
CCCOc1ccc(CN2C(=O)c3cc4occc4n3CC2(C)C(=O)NC2CCCCC2)cc1 (stereo not given)	0.927	2.07	5.87	-2.32	2.06
O=C1CN(Cc2ccc(Br)cc2)S(=O)(=O)c2ccccc2N1Cc1ccc(F)cc1	-0.602	0.422	-2.53	-4.83	-4.75
COc1ccccc1/C=C/CN1CCn2nc(CO)cc2C1	-7.16	-1.66	-2.4	-7.42	-1.14
CN1C2CCCC1CC(NC(=O)c1nn(C)c3ccccc13)C2 (stereo not given)	-4.01	3.93	-25.9	-8.79	3.49
CC1(C(=O)NC2CCCCCC2)Cn2c(nc3ccccc32)C(=O)N1Cc1ccc(Cl)cc1 (stereo not given)	-4.75	-1.2	-1.67	-9.02	-8.92
CCOC(=O)c1ccc2c(c1)[C@@H]1C=CC[C@@H]1[C@H](c1ccccc1Br)N2	-10.1	0	-7.03	-12.8	-10.5
Cc1cccc(CCN2CCC3(CC2)C(C(=O)O)CC(=O)N3C)n1 (stereo not given)	1.32	2.47	1.28	-1.08	-1.08
CC1(C(=O)NC2CCCCCC2)Cn2c(ccc2-c2ccco2)C(=O)N1Cc1ccc(F)cc1 (stereo not given)	1.15	4.14	7.35	-3.15	0.095
CC1CCN(C(=O)C2(c3ccc(NC(=O)C4CC4)cc3)CCCCC2)CC1	-5.62	-8.32	-1.22	-8.51	-2.82
Cc1cnc(C2CCOCC2)n1CCN	-0.037	2.27	1.96	-2.77	0.09
CCC(C)NC(=O)c1ccc2c(=O)n(CC(C)C)c3nn(CC(=O)NC4CCCCC4)c(=O)n3c2c1 (stereo not given)	7.38	0	8.25	4.42	6.59
CC(C)n1nc(CNC(=O)c2ccc(F)c(F)c2)c2ccccc21	14.8	5.17	13.3	6.88	8.37
Cc1c(Cl)cccc1N1C(=O)c2cc(C3CC3)nn2CC1(C)C(=O)NC1CCCCCC1 (stereo not given)	-6	4.68	-3.2	0.937	-2.92
CCC(C)NC(=O)c1ccc2c(=O)n(C3CC3)c3nn(CC(=O)Nc4ccc(C)cc4)c(=O)n3c2c1 (stereo not given)	-3.79	2.41	0.011	-6.25	0.442

Structure (SMILES)	activity change, negative = inhibition [1] [%]	activity change, negative = inhibition [2] [%]	activity change, negative = inhibition [3] [%]	activity change, negative = inhibition [4] [%]	activity change, negative = inhibition [5] [%]
CC1CCCCN1C(=O)C1COC2(CCN(C(=O)c3ccco3)CC2)N1C(=O)c1ccccc1 (stereo not given)	-3.44	-2.45	-1.3	-2.22	2.78
CN1C(=O)c2cc(C(=O)N3CCN(Cc4ccccc4)CC3)nn2CC1(C)C(=O)NC1CCCCC1 (stereo not given)	-4.04	-6.15	1.75	-1.13	-2.27
CN(C)c1ccc(CNC(=O)Cn2ccc3cc(S(=O)(=O)N4CCCCC4)ccc32)cc1	-2.66	-1.46	-2.76	-5.29	-2.82
CN1CCN(C(=O)c2cc(-c3cccnc3)nc3c2cnn3C)CC1	-4.94	-5.29	-3.28	-10.4	-3.11
COc1ccc(OCC2CN(Cc3cccs3)[S+](=O)([O-])c3cccnc3O2)cc1 (stereo not given)	-4.13	-1.04	1.62	-5.66	-18.5
CCN(CC)CC#CCOC(=O)C(O)(c1ccccc1)C1CCCCC1 (stereo not given)	-2.58	6.56	0.179	-11.5	2.95
CC1(C)C[C@H]2C3=CCC4[C@@]5(C)CC[C@H](O[C@H]6O[C@H](C(=O)O)[C@@H](O)[C@H](O)[C@H]6O[C@H]6O[C@H](CO)[C@@H](O)[C@H](O)[C@H]6O[C@@H]6O[C@H](CO)[C@@H](O)[C@H](O)[C@H]6O)[C@](C)(CO)C5CC[C@@]4(C)[C@]3(C)CC[C@@]2(C)[C@H](O[C@@H]2OC[C@H](O)[C@H](OC3O[C@H](CO)[C@@H](O)[C@H](O)[C@H]3O)[C@H]2O)[C@@H]1O (stereo not given in full)	4.44	5.64	4.74	-7.2	2.93
O=C1CCCN1CCCNc1nc2c(-c3cccc(F)c3)nnn2c2ccc(Cl)cc12	-6.05	5.04	5.33	5.07	-3.03
O=C1N(Cc2ccccc2F)CCOC12CCN([S+](=O)([O-])c1cccnc1)CC2	-5.39	2.66	1.24	1.19	3.66
Cc1cc(C(=O)N2c3ccccc3CC2c2nnc(C(C)C)o2)nn1C (stereo not given)	-2.3	2.52	0.881	-0.182	-8.46
CC[C@@H](C)[C@H]1O[C@]2(CC[C@H]1C)C[C@@H]1C[C@@H](CC=C(C)[C@@H](O[C@H]3C[C@H](OC)[C@@H](O[C@H]4C[C@H](OC)[C@@H](O)[C@H](C)O4)[C@H](C)O3)[C@@H](C)C=CC=C3CO[C@@H]4[C@H](O)C(C)=C[C@@H](C(=O)O1)[C@]34O)O2	-1.75	4.89	-0.536	-12.2	-1.68
OC(CCN1CCCCC1)(c1ccccc1)C1CC2C=CC1C2 (stereo not given)	-2.92	7.77	-3.26	-7.1	7.82
COc1ccc(NC(=O)c2ccc3c(c2)N(C(=O)c2ccc(OC)cc2)CC3)cc1	-3.5	-1.89	-0.985	-4.75	-3.05
COc1ccc(NC(=O)c2ccc(-c3ccc(-c4nnc(C)o4)cc3C)cc2)cc1N1CCN(C)CC1	-19.4	5.75	-17.2	-25.7	0.394
COc1ccccc1CN1C(=O)c2cc(-c3cccs3)nn2CC1(C)C(=O)NC1CCCCC1 (stereo not given)	-0.286	4.66	3.65	4.65	-1.48
Cc1ccc(N2C(=O)c3nc4ccccc4n3CC2(C)C(=O)NC2CCCC(C)C2C)cc1 (stereo not given)	2.46	0.997	0.5	5.22	-1.3
CC(C)CCN1C(=O)c2ccccc2CC1(C)C(=O)NC1CCCCCC1 (stereo not given)	-6.24	6.01	3.63	-1.19	-4.35
CCCn1c(=O)c2ccc(C(=O)NC3CCCC3)cc2n2c(=O)n(Cc3cc(C)ccc3C)nc12	1.82	0	8.59	-4.25	-0.478
CCc1ccc(NC(=O)CSc2nnc3n(Cc4ccc(F)cc4)c(=O)c4ccccc4n23)cc1	4.66	4.52	11.1	3.89	4.05
COc1ccc(OC)c2c1cc1n2CC(C)(C(=O)NC2CCC(C)CC2)N(Cc2cccs2)C1=O (stereo not given)	-7.24	-2.97	-4.68	-5.46	-4.3
Cc1ccc(C(=O)N2CCC(N3C(=O)CCC3C(=O)NCc3cccnc3)CC2)cc1F (stereo not given)	0.239	-2.26	1.47	-3.84	14.3
O=C1Nc2ccccc2C(O)(c2ccccc2)C1O (stereo not given)	0	-3.54	1.97	-15.4	3.47
CCCN(Cc1nccn1C)C(=O)c1cn(Cc2ccc(F)cc2)nn1	1.02	2.83	2.32	1.59	0.837
C[C@@H]1O[C@@H](O[C@H]2[C@H](O[C@H]3[C@H](O[C@H]4CC[C@@]5(C)C(CC[C@]6(C)C5CC=C5[C@@H]7CC(C)(C)C[C@@H](O)[C@]7(C)CC[C@]56C)[C@@]4(C)CO)O[C@H](C(=O)O)[C@@H](O)[C@@H]3O)OC[C@H](O)[C@@H]2O)[C@H](O)[C@H](O)[C@H]1O (stereo not given in full)	-0.266	-2.41	-1.26	-26.9	5.08
CCOc1ccc(C(=O)Cn2nc3n(Cc4ccc(C)cc4)c(=O)c4ccccc4n3c2=O)cc1	5.37	0	7.39	2.3	5.86
COc1ccc(OC)c(NC(=O)Cc2cccn2-c2ccc(Cl)cc2)c1	-4.4	-0.552	-1.17	-5.37	-5.12
COc1ccccc1CNC(=O)c1ccc2c(=O)nc3c(-c4ccccc4F)n[nH]n3c2c1	-19.3	-0.176	-2.3	-3.55	-5.25
